Measured values reported in PMC6212790.
The list shows a part of the results. At the low end of the ranking the order means little.

biological target: T1, GST-Rok (full length) (UniProt O34857); test: protein binding microarray; details: Rok is a gene silencer of Bacillus subtilis; high values mean tight binding; most listed sequences are background and not binding sites; double strand, one strand shown;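 also: rank score from −0.5 (least bound) to 0.5 (best bound)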
T1 sequence: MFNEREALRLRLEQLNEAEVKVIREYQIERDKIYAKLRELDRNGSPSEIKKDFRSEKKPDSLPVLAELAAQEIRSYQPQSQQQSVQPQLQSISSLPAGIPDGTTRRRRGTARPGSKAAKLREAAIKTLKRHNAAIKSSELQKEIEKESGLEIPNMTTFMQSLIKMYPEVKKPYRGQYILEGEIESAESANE

Sequence	binding signal
CGGCGGTA	-0.0463 E-score
AGATATAG	0.151 E-score
AGCTGAGA	-0.0281 E-score
ACAACCGC	0.0131 E-score
GGCGTCTA	-0.277 E-score
CGAGTGCC	-0.235 E-score
ACTGCGGG	-0.141 E-score
TTCAGGAA	0.0134 E-score
CCAAGTCA	-0.00458 E-score
TGCCGGAA	-0.201 E-score
CTTGGAGC	-0.225 E-score
TATCGTCA	0.107 E-score
CGGACATC	-0.133 E-score
CGGCGTAG	-0.0629 E-score
AACCACTT	0.0602 E-score
AGCACAGG	-0.256 E-score
AGCTTTGC	-0.152 E-score
CTGCTTCA	-0.205 E-score
AAGAGCGA	-0.102 E-score
AGCATACA	0.0248 E-score
AGGTTTCA	-0.273 E-score
AGTTGGTA	0.151 E-score

Sequence	binding signal
CGTCCACC	-0.298 E-score
TCCATCCA	0.0123 E-score
GACTGCTC	-0.0721 E-score
ATGGGTCC	-0.121 E-score
TCAATGAA	-0.0589 E-score
AAAGTCCC	-0.263 E-score
ATAAATCA	0.0619 E-score
ACCATACA	0.107 E-score
ACCGGTCC	-0.232 E-score
ACTACGAA	0.194 E-score
TATAGACA	0.0231 E-score
CATGCTTA	0.00454 E-score
CCGGATCC	-0.109 E-score
CCTAGGTA	0.0506 E-score
AGGTGACA	0.0342 E-score
TGACGACA	-0.21 E-score
CCTGCGTA	-0.118 E-score
ATCCCCCC	-0.32 E-score
ACGATGCC	-0.0186 E-score
ATACCTAT	0.333 E-score
CGGATGGA	-0.156 E-score
GGGGTCAA	-0.424 E-score

Sequence	binding signal
AAAATGTG	0.174 E-score
TGCGGTAA	0.0849 E-score
GCATACGA	0.203 E-score
CGTGACAC	-0.246 E-score
CCGCTACG	-0.107 E-score
AAAGTACC	0.27 E-score
CCACAAAA	0.0709 E-score
CTACTTCC	0.155 E-score
GAGCGATC	-0.193 E-score
CAATGTGA	0.104 E-score
CCTGTTGC	-0.247 E-score
AGGGGGAC	-0.402 E-score
ATTGGGAG	-0.0851 E-score
CGGGCGTA	-0.0959 E-score
GGTACTAA	0.138 E-score
GATCTATA	0.307 E-score
ACTAGATG	0.339 E-score
AGGAAGCG	-0.117 E-score
GACGCCCA	-0.419 E-score
AGTAATGG	0.13 E-score
CAAGCGAA	-0.229 E-score
ACTAGTCA	0.352 E-score

Sequence	binding signal
ATAGTCAG	0.131 E-score
GGCCGACA	-0.26 E-score
GATTGGGC	-0.307 E-score
GGCATGAC	-0.16 E-score
CTCGCAAA	-0.0472 E-score
GGCAGGCC	-0.332 E-score
ATGGGCCC	-0.273 E-score
CTTCTAAA	-0.00526 E-score
GACAGAGC	-0.145 E-score
ATTCGAAC	0.223 E-score
AAGGCGCA	-0.234 E-score
ACCTGTAA	-0.0623 E-score
CCGCGTCC	-0.336 E-score
GCCGGAAC	-0.198 E-score
GCACGCGC	-0.178 E-score
AGTGCAGA	-0.148 E-score
AGTACGGC	0.0681 E-score
ACGGAAAC	-0.0398 E-score
AGAATACT	0.271 E-score
GGCTGTCA	-0.237 E-score
